Whole data set: some 33,000 sequences, median “E-score (-0.5 to 0.5)” near -0.017, cut for the highest 2% near 0.3. This is one part of the list.
These sequences were tested against T1, Sut1 (UniProt P53032) (assay: PBM E-score (8-mer binding enrichment) (E-score (-0.5 to 0.5)); higher = stronger / more preferred TF binding; most listed sequences are background and not binding sites). Conditions: protein concentration: 200 nM; construct: GST-full length.
T1 sequence: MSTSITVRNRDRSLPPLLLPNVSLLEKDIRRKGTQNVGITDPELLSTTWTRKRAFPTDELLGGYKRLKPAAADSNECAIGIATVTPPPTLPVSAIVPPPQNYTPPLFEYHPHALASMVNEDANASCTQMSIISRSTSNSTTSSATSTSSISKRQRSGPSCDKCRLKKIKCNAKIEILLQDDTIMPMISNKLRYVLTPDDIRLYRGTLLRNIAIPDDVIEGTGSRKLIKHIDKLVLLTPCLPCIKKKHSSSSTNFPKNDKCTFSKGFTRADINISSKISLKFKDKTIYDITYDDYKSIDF
Outline: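 Using PURExpress in vitro transcription/translation, GST-tagged yeast transcription factors were made in full-length or DNA-binding-domain form. These were applied at about 100-200 nM to double-stranded universal all-10-mer Agilent arrays, and bound protein was detected with fluorescent anti-GST. Scans were normalised with masliner before the Universal PBM Analysis Suite assigned E-scores to ungapped eight-base words pooled with their reverse complements.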

| Sequence | PBM E-score |
| --- | --- |
| GAACTTTA | 0.145 |
| CATCCGGG | -0.0527 |
| TTAAACAA | 0.132 |
| CAAAAGGC | -0.106 |
| GGCACGCC | -0.252 |
| CATTTTCC | 0.149 |
| GTATACGA | -0.0202 |
| AATGAACA | 0.107 |
| GCAACAGA | 0.00797 |
| AACCTCAT | 0.0566 |
| ACCACAGG | -0.113 |
| ATCCCGCC | -0.137 |
| ATCTCACG | -0.0224 |
| ATCCTTAG | -0.0491 |
| AGATAGAT | -0.0228 |
| GGCTATAA | 0.0237 |
| CAAAGCGC | 0.0135 |
| ACACGGCG | 0.026 |
| CGGACCAG | 0.196 |
| ACCCGGAT | -0.107 |
| ATGAATGG | 0.157 |
| AGGCTCAA | -0.194 |
| ACGCGTAA | 0.0156 |
| CGCAATTC | 0.0891 |
| CTATCTAC | 0.0306 |

| Sequence | PBM E-score |
| --- | --- |
| GCCTGACA | -0.261 |
| TGGAGAAA | -0.00929 |
| TCTGTGCA | -0.0526 |
| TACCAACA | 0.0754 |
| AGTAAGTC | 0.0732 |
| AATCCCGC | 0.0742 |
| CCAATCTA | -0.0455 |
| CGTATACC | -0.263 |
| TAGAGGGA | -0.131 |
| CTGTAAAC | -0.0588 |
| ACGCCACA | -0.012 |
| CTTCCCTC | -0.174 |
| ACCTCCCT | -0.299 |
| ACCGGAGC | 0.353 |
| AAGCAGGT | -0.0614 |
| CGGCATCC | 0.0152 |
| CAACCTCG | -0.0346 |
| CGAATACG | -0.0489 |
| CGCCAGTA | -0.21 |
| GATTCGCC | 0.00954 |
| CAGTTTCC | 0.03 |
| AAGGTCCG | 0.407 |
| GATCGTAC | -0.0542 |
| ACCACCTC | -0.052 |
| TGGCCAAA | -0.0258 |

| Sequence | PBM E-score |
| --- | --- |
| CCCTACAA | 0.0572 |
| GGAGGGTA | -0.187 |
| GGCAAAAA | 0.0677 |
| AAAACGCG | 0.0084 |
| AGTCGTCA | -0.0673 |
| ACATCTCT | -0.036 |
| CTAGCTTC | -0.0205 |
| AACATTTG | -0.0993 |
| ACGAGTAC | -0.096 |
| CCCACATC | -0.125 |
| CAACCGTG | -0.0424 |
| AAGGAATA | 0.0336 |
| CGGCGGGA | -0.235 |
| CACGCCCA | -0.104 |
| ATACGCCA | -0.135 |
| AGAGGAGG | -0.182 |
| AATTTTGG | 0.12 |
| AAATAACC | 0.115 |
| TCGTATAA | 0.238 |
| CCAAAGAG | 0.0616 |
| GAGGTGAA | 0.0586 |
| GCTTCAAC | -0.0669 |
| CGTCGAAA | 0.11 |
| GGCCGAAC | 0.0161 |
| CCCTCCGG | 0.00905 |

| Sequence | PBM E-score |
| --- | --- |
| GCATGTCA | -0.0214 |
| CTCGTCAA | -0.0181 |
| CTGTCCCA | -0.336 |
| GAGCCGCC | -0.0201 |
| AGTTATAC | 0.208 |
| ACCGAGAC | -0.135 |
| ACTAAGAC | -0.0184 |
| GTTCGCGA | 0.0195 |
| GAATCGTA | 0.0897 |
| AGCTTTAA | 0.121 |
| GAGAGCAA | 0.0372 |
| GCTAAACC | -0.0582 |
| AGATTACA | 0.0344 |
| GGTCAACC | -0.0856 |
| CCTCAGCC | -0.259 |
| ACCCGGAG | 0.416 |
| GAACTTGC | -0.0387 |
| CTTCGATA | 0.213 |
| GAGGATTA | -0.00884 |
| GCCGACAC | -0.265 |
| GGCAGTAA | -0.076 |
| GCAGCACA | -0.1 |
| AAACCAAA | 0.167 |
| ACTGTAAA | 0.146 |
| TGACCGAA | 0.0569 |

| Sequence | PBM E-score |
| --- | --- |
| ATGGGTAG | -0.31 |
| CATAAGAC | 0.0803 |
| CACGCTTA | 0.0659 |
| AGGCTAAT | 0.0798 |
| AATGCTGT | -0.153 |
| GCCTGCCA | -0.134 |
| CATGTACC | -0.234 |
| CGGGGGTA | -0.0332 |
| AGTGTGCC | -0.134 |
| CCCGAAAA | 0.177 |
| AGCCAGCC | -0.194 |
| GTCAACAA | 0.00063 |
| AAATAGTA | 0.228 |
| ACTGTCTG | -0.11 |
| CCAAAACC | -0.0129 |
| CCAGCGAA | 0.00997 |
| CAGGTGAA | -0.0804 |
| CAGATCCA | 0.02 |
| CTATCGAG | -0.152 |
| GGTCACCA | -0.342 |
| CCGTACTC | 0.0695 |
| GCCGCCTA | -0.287 |
| ACCAACAT | 0.0524 |
| CTGTGTAC | 0.00938 |
| AGTTATCG | 0.192 |

| Sequence | PBM E-score |
| --- | --- |
| AAGCTAAT | 0.102 |
| CGTGGGGC | -0.272 |
| CGTTACGA | 0.114 |
| GCATGCGA | 0.0246 |
| GCCGTGAC | -0.0654 |
| GGTTCTGA | -0.075 |
| GATTTCAA | 0.147 |
| TGATAAAA | 0.283 |
| ATGATTAG | 0.109 |
| GGCTACCA | -0.0678 |
| AGCCACCT | -0.248 |
| ATAGGACG | -0.114 |
| AATCAAGA | 0.0025 |
| TAAAAGTA | 0.225 |
| ATGGCCCA | -0.102 |
| CCCCTCCC | -0.301 |
| CGTGACAA | -0.15 |
| CTTCCCGA | 0.0268 |
| GGAGATAC | 0.0832 |
| ATCTTGAG | 0.00289 |
| GGGACGAA | -0.246 |
| CAGGGCGA | -0.0978 |
| AACGCATT | 0.11 |
| ACTGACCG | -0.108 |
| CATCTTGA | -0.0585 |

| Sequence | PBM E-score |
| --- | --- |
| ACGTAACC | -0.115 |
| GGACATTA | 0.222 |
| GGATGGTA | 0.0953 |
| CCCGGTGA | -0.171 |
| CAATGATG | 0.0603 |
| ATCGACTC | -0.114 |
| AGTCATCA | -0.123 |
| AGCCCAAC | -0.13 |
| CGTCGCAG | -0.147 |
| TAGAGCGA | -0.0705 |
| GGGTGTCA | -0.0836 |
| AGAGTTTG | 0.0735 |
| TACGCCTA | -0.0462 |
| AAACCTGC | -0.0637 |
| CGTCACCA | -0.0749 |
| AATAATGC | 0.24 |
| CGGCAACA | 0.0712 |
| CCCCGACC | -0.142 |
| ACTAAAAC | 0.159 |
| TACGAAAA | 0.167 |
| AGCTGTCC | -0.15 |
| CATCAAAA | 0.13 |
